# Test results reported in PMC6919601, “Identification of Plasmodium dipeptidyl aminopeptidase allosteric inhibitors by high throughput screening” (PLoS ONE, 2019).
# About 230 (0.21%) of roughly 110,000 compounds showed an effect of 50% or more. Some of the results follow. Where a SMILES comes first, the peptide text is derived from it.
# Biological target: DPAP1 (Plasmodium falciparum, UniProt Q8IIJ9)
# Experiment: primary screen, percent inhibition; read by cleavage of a fluorogenic dipeptide substrate; higher = more effect of the substance
# Parameters: species or system P. falciparum D10 trophozoite lysates; single well
# 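Note: 30 min substrate incubation versus DMSO and 10 µM JCP410 controls.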
# Chain of DPAP1 (Q8IIJ9 whole entry, looked up): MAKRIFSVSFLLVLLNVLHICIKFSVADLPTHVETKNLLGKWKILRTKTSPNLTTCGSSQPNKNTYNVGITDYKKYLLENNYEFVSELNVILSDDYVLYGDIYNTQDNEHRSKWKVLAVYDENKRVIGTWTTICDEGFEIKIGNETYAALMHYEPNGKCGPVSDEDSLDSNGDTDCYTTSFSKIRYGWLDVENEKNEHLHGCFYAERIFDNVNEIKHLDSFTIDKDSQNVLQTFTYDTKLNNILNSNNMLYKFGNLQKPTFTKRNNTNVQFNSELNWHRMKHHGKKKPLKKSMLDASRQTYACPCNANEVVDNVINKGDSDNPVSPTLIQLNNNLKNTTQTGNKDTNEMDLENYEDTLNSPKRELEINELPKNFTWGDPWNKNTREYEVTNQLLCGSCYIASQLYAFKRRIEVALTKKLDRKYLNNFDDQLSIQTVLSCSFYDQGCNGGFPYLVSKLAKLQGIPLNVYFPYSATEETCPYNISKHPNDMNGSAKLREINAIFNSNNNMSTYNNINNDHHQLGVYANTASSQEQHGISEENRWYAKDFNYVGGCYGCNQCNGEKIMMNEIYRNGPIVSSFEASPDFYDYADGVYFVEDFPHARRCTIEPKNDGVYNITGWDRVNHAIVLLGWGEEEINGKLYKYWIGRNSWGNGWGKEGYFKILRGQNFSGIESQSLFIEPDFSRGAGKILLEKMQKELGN
row,SMILES,% Inhibition @ 10 uM [%]
1,N#C/C(=C\c1c(Oc2ccccc2Cl)nc2ccccn2c1=O)C(=O)NCc1ccco1,-0.828
2,CCCC(=O)NCCc1cc(OC)c(OC)cc1Br,-1.11
3,Cc1cc(NCc2ccccc2)cc(=O)n1Cc1ccccc1,-0.0555
4,CN1Cc2cccc3c2C(Cc2ccccc2S3)C1 (stereo not shown),3.05
5,Cc1cc(C)cc(N2C(=O)C3C4C=CC(C5CC45)C3C2=O)c1 (stereo not shown),-3.78
6,O=C(NCc1ccc2c(c1)OCO2)c1nnc(-c2cccc(Cl)c2)o1,5.37
7,Cc1cccc(CN2CCC(CNC(=O)NCc3noc4ccccc34)CC2)c1,4.84
8,COc1ccc(-c2nnc(-c3ccc4c(c3)OCO4)o2)cc1OC,7.87
9,CCCCNC(=O)c1cc(S(=O)(=O)N2CCCCC2)ccc1F,1.42
10,CCCCNC(=O)CNC(=O)CNC(=O)c1ccccc1 (HELM PEPTIDE1{[O=C(c1ccccc1)[*:2]].G.G.[CCCCN[*:1]]}$$$$V2.0),-0.598
11,CCC(C(=O)NCc1cccc(Cl)c1)n1ccc2cc(S(=O)(=O)N3CCCCC3)ccc21 (stereo not shown),-2.68
12,CC(CCc1ccco1)N(C)S(=O)(=O)c1csc(C(N)=O)c1 (stereo not shown),-2.5
13,CC1CCN(CCCNC(=O)c2ccc(CS(=O)(=O)Cc3ccc(Cl)cc3)o2)CC1,3.93
14,NCC(CC(=O)O)c1ccccc1 (stereo not shown),-0.597
15,COc1cc(NC(C)CCCN)c2ncccc2c1Oc1cccc(Cl)c1 (stereo not shown),1.52
16,c1ccc(N2CCN(c3nnc(Cc4cccnc4)c4ccccc34)CC2)nc1,-4.69
17,Cn1c(CNc2ccc(Br)cc2)nc2ccccc21,1.72
18,CCOC(=O)N1CCN(C(=O)CCc2nc(O)c3c4c(sc3n2)CCCC4)CC1,-0.228
19,CCCCc1ccc(NC(=O)C2CCN(S(C)(=O)=O)CC2)cc1,-5.01
20,CC(=O)N/C(=C\c1ccc(F)cc1)C(=O)OCc1ccccc1,-0.597
21,Cc1ccc(C2CC(c3ccccc3OC(F)F)Nc3ncnn32)cc1 (stereo not shown),-1.48
22,COc1ccc(N(CC(=O)Nc2ccc(CC#N)cc2)S(=O)(=O)c2ccc(C)cc2)cc1,-1.95

row,SMILES,% Inhibition @ 10 uM [%]
1,CCCCCCN1CC(=O)C(c2nc3cc(C)ccc3[nH]2)=C1N,3.74
2,O=C(O)/C=C\C(=O)Nc1ccc(O)c(C(=O)O)c1,1.2
3,CCC(CC)NCc1cccc([N+](=O)[O-])c1,-7.5
4,CC(C)C[C@H](NC(=O)c1cn2c(n1)sc1ccccc12)C(=O)NCC#N,4.33
5,NC(=O)c1ccc(NC(=O)c2ccccc2)cc1,-1.98
6,COc1ccc(C2=CC(c3ccco3)n3ncnc3N2)cc1 (stereo not shown),-1.4
7,CO/C(O)=C1\C(C)=NC2=C(C(=O)CCC2)C1c1cccc(F)c1 (stereo not shown),-5.44
8,Cc1cccc(-c2cc(C(=O)NCc3ccc(S(N)(=O)=O)cc3)c3ccccc3n2)c1,0.431
9,COc1cc(Br)cc(NC(=O)c2ccc([N+](=O)[O-])cc2)c1,-0.268
10,COc1ccc(C2CC(c3ccc(C)cc3)=NN2C(=O)CCC(=O)O)cc1OC (stereo not shown),15.8
11,O=S(=O)(NC1CCCCC1)c1ccc(S(=O)(=O)N(Cc2ccccc2)Cc2ccco2)cc1,-1.31
12,N#CC1=C(N)N(c2c(F)cccc2F)C2=C(C(=O)CCC2)C1c1ccccc1 (stereo not shown),6.59
13,Cc1nc2cccnc2n1-c1ccc(CC(=O)NCCC2=CCCCC2)cc1,2.63
14,CCCN(Cc1cccc([N+](=O)[O-])c1)CC1CC1,-2.21
15,O=C(c1ccc(NC(=O)C(F)(F)F)cc1)c1ccc(NC(=O)C(F)(F)F)cc1,2.33
16,O=C(NCCC1=CCCCC1)c1ccc2c(c1)ncn2-c1cccc(F)c1,4.35
17,CCN1C(=O)C(O)(CC(=O)c2ccccc2)c2ccccc21 (stereo not shown),20.9
18,CN(C)CCCN(CCCN(C)C)Cc1ccc(F)cc1,-7.56
19,COCCCNC(=O)Cn1ncc2c3ccccc3n(Cc3ccc(F)cc3)c2c1=O,-1.58
20,Cc1nc2c(sc3nc4c(cc32)COC(C)(C)C4)c(=O)n1CC(C)C,4.78
21,COc1ccc(COCC(O)CN2CCN(C)CC2)cc1OC (stereo not shown),4.23
22,COc1ccc(-c2cc(C(=O)N3CCCN(Cc4ccc(F)cc4)C3)[nH]n2)cc1,-3.5

row,SMILES,% Inhibition @ 10 uM [%]
1,CC(C)(C)c1ccc(C(=O)NCCN2CCCC2)cc1,4.78
2,Brc1ccc(CN2CCN(c3ccccn3)CC2)o1,1.63
3,O=C(NCCCN1CCC(Cc2ccccc2)CC1)c1nnc(-c2cccc(Cl)c2)o1,-1.14
4,O=C(NCC1(c2ccccc2)CCCC1)c1noc2c1COc1ccccc1-2,47.2
5,O=C(CSCc1ccco1)c1ccccc1,8.75
6,Cn1c2ccccc2c2c(C(=O)NCc3ccc4c(c3)OCO4)cn(C3CCCC3)c(=O)c21,-3.39
7,COP(=O)(OC)C(Nc1ccc(C)cc1)c1c[nH]c2ccccc12 (stereo not shown),-0.744
8,NC(=O)CS(=O)(=O)c1ccc(Cl)cc1,-1.29
9,COc1cc2c(cc1OC)C(c1cc(Cl)ccc1O)NCC2 (stereo not shown),1.57
10,C/C(Cl)=C\Cn1c(N2CCNCC2)nc2c1c(=O)[nH]c(=O)n2C,-2.41
11,COc1ccc(Cc2nnc(C(=O)NCC3CCCO3)o2)cc1OC (stereo not shown),-5.05
12,O=C(Nc1ccc(S(=O)(=O)N2CCOCC2)cc1)c1cccs1,-2.78
13,CCN(C(=O)COc1ccc(Cl)cc1Br)c1ccccc1,-3.26
14,Cc1oc(-c2cccs2)nc1CSc1nncn2c1cc1sccc12,-6.89
15,COCCNC1C2CC3CC(C2)CC1C3 (stereo not shown),3.18
16,CCc1ccc(-c2[nH]nc3nc(-c4cccs4)cc(C(=O)O)c23)cc1,5.62
17,CCCc1cc(N2CCN(C(=O)c3ccco3)CC2)n2c(nc3ccccc32)c1C#N,-0.85
18,Cc1cc(C)c2c(c1)OC(N1CCOCC1)C(C)(C)C2O (stereo not shown),-1.65
19,c1nc(N2CCCCCC2)c2c3c(sc2n1)CCCC3,0.774
20,CC(=O)Nc1ccc(Nc2nc(C)c(C(C)=O)s2)cc1,1.92
